This is an account of results in the RNAGym collection of RNA variant scans (doi:10.7554/elife.90254).

The labels stand for the following.
B1: LINE1-full (parent)
chain: UACGUAGGUGGUUUUCCCCUGAUAGUGCUAAGGGGGCCUGGAAGUUUGGACUGGGCAGAGCUCAACACAGCGUGGCAAAGUGGCUGUGGCUAGACUGCCUCUCUGGAUUCCUCGUCACUCAGCAGGGCAUCUCUGAGAGAAAUGCC

The source gives no read counts; variants with many changes may rest on few reads.

Variants of B1 are the subject of this data set. As to the kind of experiment: self-cleavage, relative activity (ratio to wild type); higher = more cleavage; in vitro, sequencing; the parent is a self-cleaving ribozyme.
In the case of U9A A79U A92U, the self-cleavage came out at 0.58.

Turning to U13C G54U U73C C111U A124U, the self-cleavage came to 1.07.

As to U23C U39C A59U U62C A121U, the self-cleavage came out at 0.09. For the variant A59G C61U U73A G126U, the self-cleavage is 0.03. In the case of U20C A42G U73C U109C, the self-cleavage was found to be 0. For U81A U109C U132C, the self-cleavage amounted to 1.92. As to U15A U47A A59G C61U U130C, the self-cleavage came out at 0.04. With U23C U91C A117G, the self-cleavage is 1.23. As for U12A U20G A124U U132C, the figure is 1.41; as for U47A U62C A140U, 0.06. As to U46C U81A U87A A141G, the self-cleavage amounted to 0.48.

Turning to A50U G106A A142G, the self-cleavage turned out to be 1.35. As to U12C U96C U109A, the self-cleavage came to 0.34. In the case of U62C A140G U143A, the self-cleavage stood at 0.08.

With G33A A57G A79G, the self-cleavage is 0.81. Turning to G10A U52A A57G U85A C116U U119C, the self-cleavage was 0.01. For the variant U1C U46C A92U, the self-cleavage is 0.24. Turning to U9C U47G A136G U143A, the self-cleavage came out at 1.5.

Consider U20C G25A U104A, for which the self-cleavage is 0.73. A30U U100C A121U A140U: the self-cleavage is 2.83.

In the case of C3U G106C A142G, the self-cleavage stood at 1.07. The result for U26A G35A U130C reads 1.08. As for A59G A67G U85A U132C, the self-cleavage came to 0. Turning to U81A U91C U130C, the self-cleavage was 0.68. In the case of A59G U119C A142G, the self-cleavage was 0.26. With U5C G82A U102A, the self-cleavage came out at 1.72. As for U12C A107G A142G, the self-cleavage turned out to be 1.84.

Consider A2G U5C U15A A78G, for which the self-cleavage is 0.71.

With C38A A129U A136G, the self-cleavage was 1.36.

Take U23C A57G A69G: the self-cleavage is 1.02. The result for A78G U91A U104A U109C reads 0.21; that for U12A U39A A42G U85A U100A A107U U108A U132C, 0. Consider U20A A77G G122U, for which the self-cleavage was 1.14. As for U14C U130A C145A, the figure is 0.87; as for C19G U47C U52C C113U, 1.06.

In the case of A79G U81A U102C, the self-cleavage turned out to be 0.68.

Turning to U12A U46A A77G U85C A140G U143C, the self-cleavage stood at 0.31. Consider G35U A42G U134C, for which the self-cleavage was 2.01. As for U29C A138U A140G, the figure is 1.86. As to U13A A69C A92C, the self-cleavage was determined as 0. Regarding G33A U96C U108C, the self-cleavage worked out at 0.05. As to U85C G88A U100G U112G, the self-cleavage stood at 0. As to U46C A77G U91C, the self-cleavage stood at 0.45. On to A42G G55A A64G U119C, for which the self-cleavage is 0.07. For the variant U119A C123G A140G, the self-cleavage turned out to be 0.66. Turning to U1C U9C U20C, the self-cleavage is 1.24. U39C A65U U119C: the self-cleavage came out at 0.16. As for U20C U115C A121G, the self-cleavage amounted to 1.31. For the variant U91A U130A A138G U143C, the self-cleavage stood at 1.12. In the case of U46C G53A U100C U132A, the self-cleavage came to 1.21. Turning to U108C A117U U134A U143C, the self-cleavage was 2.51. In the case of U12C A31G U87A, the self-cleavage turned out to be 0.09. Take U29C U39A A94G U96C A138G: the self-cleavage amounted to 0. The result for G54U A77G A78G reads 0.39. The result for A42U U104G A140G reads 0.43. With U47C G75C U115A, the self-cleavage came to 0.89. As for U9A U112A A140G, the figure is 1.44; as for U12C A67G A121U, 0.92.

As to U62C A78U A136G, the self-cleavage came to 0. In the case of U29C A59U A140U, the self-cleavage amounted to 0.5.

As for U46C A64G A140G, the self-cleavage was 0.23. As for A42G G88A A92G, the figure is 0.07; as for U12C U26C G33U U62A, 0; as for A31G U46A A57G, 0.55. Take C38A U46G A141U: the self-cleavage was determined as 1.11. Regarding A64G C113A G125A U132A, the self-cleavage came to 0.16. On to U100A A138G A141G, for which the self-cleavage came out at 1.6. The result for A22G C128U A140G reads 0.78; that for A22U A30C U52C A57G U87C A138U, 0. For U52A A107G U130C, the self-cleavage is 1.22. As for G35C U45C U47C, the figure is 1.96; as for C98U U102C C128U, 0.37; as for U26C C76U U81C A124U, 1.68. Turning to U14C U62A C84U A140G, the self-cleavage stood at 0.08. As to A69U U85A C90A U143A, the self-cleavage stood at 0.05.

On to U73A A78U U96C, for which the self-cleavage was determined as 0.16.

As for U5C U45C G49C A50G A78G, the self-cleavage worked out at 1.84.

Regarding U46C U96C A141U, the self-cleavage amounted to 0.11.

On to U20A U26A U91A, for which the self-cleavage came to 0.37. The result for U14C U96A U104A U115C reads 0.

Take U39C U109C A138G: the self-cleavage was 0.77. Take G49U U73C A121G: the self-cleavage was found to be 1.13.

Regarding U5C U15A A124G G137A, the self-cleavage came to 1.87. In the case of U45C G83A U87G A121U, the self-cleavage stood at 0.03. With U14C U20C U100C G122A U143A, the self-cleavage is 2.07. As for U52C C90U U115A U132C, the self-cleavage is 0.03. Take U5C U9G A64G: the self-cleavage stood at 0.71. For the variant A79G U119C U130A A138G C146G, the self-cleavage amounted to 2.04. The result for U13C U81A U143C reads 1.21. As for A67C U100C U102A U109C C113U, the figure is 0. Turning to A59G G72C U85G G114A U130C, the self-cleavage was 0.

As to A6U A57G A77G, the self-cleavage is 0.59. For G11A U12C G83A, the self-cleavage is 0.74. For U12A A79G U108C C133U, the self-cleavage worked out at 0.71. For the variant G40A U87A A138G, the self-cleavage is 0.07. For U15A A59U A117U, the self-cleavage amounted to 1.6. As for A2G U91C U119C C146U, the figure is 0; as for U13C A92G U96C, 0. On to A64G G126A U143A, for which the self-cleavage came to 0.21. The result for A30G A43G U96A reads 0.05. For the variant G54A A77U U119C, the self-cleavage was 1.04. U46C A79G U108C: the self-cleavage is 0.42. As for U14C U102C U119A, the figure is 0.37. For the variant U20A U46C U134C, the self-cleavage is 0. Turning to U14A U47C A79U, the self-cleavage was determined as 1.26. For A43G U45C U130C, the self-cleavage was determined as 1.2. The result for A50G U62C A77G A136U reads 0.29.

As for A79U U85C U102C U130C, the self-cleavage is 0. For U46C G74A U96C A140G, the self-cleavage was 0.12.

U62C A77G A124U A136U A138G: the self-cleavage was 0.03. In the case of U5C U14C C146U, the self-cleavage came out at 1.13. As to U47C C56U A117G, the self-cleavage is 0.41. As for U46C C71U A142G, the figure is 1.16. Regarding A67G U100C A121U A138G, the self-cleavage is 1.31. In the case of C123U G126A A140G, the self-cleavage came to 0.75.

Consider A69G U96C A140U, for which the self-cleavage is 0.2.

As to G53A A59G A65G U108C A124G, the self-cleavage came to 0.2.

Consider U52C A79G U85A U91C G125U, for which the self-cleavage amounted to 0.

Turning to A50U G75U U112C U134C U143C, the self-cleavage was found to be 0.36. As to U15A A42G U47A U62C U112C, the self-cleavage was 0. Regarding C19U U134C U143C, the self-cleavage was 1.42.

U1C A43U A141G: the self-cleavage was determined as 0. For the variant A22U A117U A124C, the self-cleavage stood at 1.43. On to A64G A69U A129G U134A A136U, for which the self-cleavage amounted to 0.11.

In the case of U13C U73C A78G G88U, the self-cleavage worked out at 0.07. On to U39C U52C A141G, for which the self-cleavage is 0.23. For A42G A65G A138G, the self-cleavage was found to be 0.11. As for A69G A124U A141G, the figure is 0.2; as for G49A G97C U100C, 0.08; as for C37U A50C A67G U73A U143C, 0.12. As for A64G A65G A129G A140G, the figure is 0; as for U9A C19U G36A A42G U108C, 1.43; as for U13C G48C U91C, 0.68. For the variant U85G U87A G93A U132C, the self-cleavage stood at 0.02. With U96C U100C U134A, the self-cleavage came to 0.6.

Take U20A U85A A117G: the self-cleavage is 0.23. The result for A59G G93U A107U A136G reads 0.02; that for U1C U12G C116A U143C, 0.81; that for U29C A67G U102C, 0.

For the variant A30G U39C U46C U87A U115A, the self-cleavage worked out at 0.38.

Turning to A22U G60A U62A G114A U130C, the self-cleavage is 0.03. The result for A42G U112C U130C reads 0.38; that for A2G U15C G41A A79G, 1.01. Take U14A U15C A77U A94G A121U: the self-cleavage worked out at 0.14. Regarding G8A U45C A65G U73G U112A, the self-cleavage turned out to be 0. As for U5C U15C G40A A42G A50G U73A, the figure is 2.12. Turning to U14C U73C A78G A129G, the self-cleavage came out at 2.7. As to U14C U26C A59G U132C A141U, the self-cleavage amounted to 0.16. In the case of A79U U96A C110U, the self-cleavage was found to be 0.07. For U12G A69G U134A, the self-cleavage was found to be 0.16. The result for A65G U81A U109C U132C reads 0. The result for U13C U87C U115G reads 0.18. A64G U115A A141G A142G: the self-cleavage was 0.11. Turning to A43U A57G U62A U91C U134C, the self-cleavage is 0.48. For the variant U15A C133U A138G A140G, the self-cleavage stood at 1.34. Consider A6G U14C A22G C90U, for which the self-cleavage came out at 0.15.

Regarding A43G U45C A129G, the self-cleavage came to 0.

For U9C U14A A57U U112A, the self-cleavage stood at 0.3. For U104C G106U U119C A124U A140G, the self-cleavage turned out to be 2.69.

For U20C A138G A141G, the self-cleavage was determined as 2.09. A43G U62C C71A: the self-cleavage is 0.04. In the case of U13A A43G G72A, the self-cleavage stood at 0.38. Take A43G A50G C118U: the self-cleavage was determined as 0.67.

For the variant A22G A57U U73C U85A A141G, the self-cleavage was determined as 0.07.

Turning to A69G C113U A117U, the self-cleavage came to 0.48.

In the case of G41A U81A U108A, the self-cleavage was 1.66. As for U13C A65G G72U A77U, the self-cleavage was determined as 0.07.
